Laboratory results from PubChem BioAssay AID256 (DTP/NCI, 2004).
Values joined by “and” are separate entries in the source; they are usually repeats but may differ in a detail not shown here. Equal values may be shown once. Further values from the same series stand in other lists. Toxic doses and inconclusive results are not listed.

System: CD2F1 mice, L1210 leukemia ip, survival T/C
Test: NCI In Vivo Anticancer Drug Screen. Data for tumor model L1210 Leukemia (intraperitoneal) in CD2F1 (CDF1) mice
Conditions: higher = longer survival
In short: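 Activity against a transplanted murine tumor was judged by comparing the compound group with a vehicle group. The outcome in the treated animals was divided by that in the controls.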

SMILES: O=NN(CCCl)C(=O)NCCCl
- T/C (endpoint: mean survival time, dose: 3.75 mg/kg/injection, schedule: Q01DX001 (ip), vehicle: saline + alcohol): 100 % of control
- T/C (endpoint: mean survival time, dose: 3.8 mg/kg/injection, schedule: Q01DX001 (ip), vehicle: saline + alcohol): 106 % of control
- T/C (endpoint: mean survival time, dose: 4.0 mg/kg/injection, schedule: Q01DX001 (ip), vehicle: saline + alcohol): 111 % of control
- T/C (endpoint: mean survival time, dose: 5.0 mg/kg/injection, schedule: Q01DX001 (ip), vehicle: Klucel (hydroxypropylcellulose) (HPC)): 103 % of control
- T/C (endpoint: mean survival time, dose: 5.0 mg/kg/injection, schedule: Q01DX001 (ip), vehicle: saline): 96 % of control
- T/C (endpoint: mean survival time, dose: 8.0 mg/kg/injection, schedule: Q01DX009 (ip), vehicle: other): 346 % of control
- T/C (endpoint: mean survival time, dose: 14.0 mg/kg/injection, schedule: Q07DX003 (ip), vehicle: saline + alcohol): 636 % of control
- T/C (endpoint: mean survival time, dose: 18.8 mg/kg/injection, schedule: Q01DX001 (ip), vehicle: saline + alcohol): 356 % of control
- T/C (endpoint: mean survival time, dose: 20.0 mg/kg/injection, schedule: Q07DX003 (ip), vehicle: saline + alcohol): 460 % of control (2×) and 854 % of control
- T/C (endpoint: mean survival time, dose: 25.0 mg/kg/injection, schedule: Q01DX001 (ip), vehicle: saline + alcohol): 431 % of control and 535 % of control
- T/C (endpoint: mean survival time, dose: 26.0 mg/kg/injection, schedule: Q07DX003 (ip), vehicle: saline + alcohol): 520 % of control (2×) and 755 % of control
- T/C (endpoint: mean survival time, dose: 27.0 mg/kg/injection, schedule: Q01DX001 (ip), vehicle: saline + alcohol): 490 % of control
- T/C (endpoint: mean survival time, dose: 30.0 mg/kg/injection, schedule: Q01DX001 (ip), vehicle: Klucel (hydroxypropylcellulose) (HPC)): 439 % of control
- T/C (endpoint: mean survival time, dose: 32.0 mg/kg/injection, schedule: Q01DX001 (ip), vehicle: saline): 740 % of control
- T/C (endpoint: mean survival time, dose: 33.0 mg/kg/injection, schedule: Q07DX003 (ip), vehicle: saline + alcohol): 359 % of control
- T/C (endpoint: mean survival time, dose: 40.0 mg/kg/injection, schedule: Q01DX001 (ip), vehicle: DMSO): 352 % of control
- T/C (endpoint: mean survival time, dose: 64.0 mg/kg/injection, schedule: Q01DX001 (ip), vehicle: other): 602 % of control
- T/C (endpoint: mean survival time, dose: 128.0 mg/kg/injection, schedule: Q01DX001 (ip), vehicle: saline + alcohol): 86 % of control
- T/C (endpoint: median survival time, dose: 5.0 mg/kg/injection, schedule: Q01DX001 (ip), vehicle: Klucel (hydroxypropylcellulose) (HPC)): 108 % of control
- T/C (endpoint: median survival time, dose: 7.0 mg/kg/injection, schedule: Q01DX009 (ip), vehicle: saline + alcohol): 365 % of control
- T/C (endpoint: median survival time, dose: 10.0 mg/kg/injection, schedule: Q01DX005 (ip), vehicle: saline): 370 % of control
- T/C (endpoint: median survival time, dose: 10.0 mg/kg/injection, schedule: Q03DX003 (ip), vehicle: DMSO): 444 % of control
- T/C (endpoint: median survival time, dose: 15.0 mg/kg/injection, schedule: Q01DX005 (ip), vehicle: saline): 370 % of control
- T/C (endpoint: median survival time, dose: 20.0 mg/kg/injection, schedule: Q01DX001 (ip), vehicle: saline): 370 % of control and 711 % of control
- T/C (endpoint: median survival time, dose: 20.0 mg/kg/injection, schedule: Q03DX003 (ip), vehicle: DMSO): 608 % of control and 714 % of control
- T/C (endpoint: median survival time, dose: 20.0 mg/kg/injection, schedule: Q04DX003 (ip), vehicle: saline + alcohol): 704 % of control
- T/C (endpoint: median survival time, dose: 20.0 mg/kg/injection, schedule: Q07DX003 (ip), vehicle: saline + alcohol): 488 % of control
- T/C (endpoint: median survival time, dose: 26.0 mg/kg/injection, schedule: Q07DX003 (ip), vehicle: saline + alcohol): 713 % of control
- T/C (endpoint: median survival time, dose: 30.0 mg/kg/injection, schedule: Q01DX001 (ip), vehicle: saline): 517 % of control
- T/C (endpoint: median survival time, dose: 32.0 mg/kg/injection, schedule: Q01DX001 (ip), vehicle: saline + alcohol): 412 % of control
- T/C (endpoint: median survival time, dose: 33.0 mg/kg/injection, schedule: Q07DX003 (ip), vehicle: saline + alcohol): 354 % of control
- T/C (endpoint: median survival time, dose: 40.0 mg/kg/injection, schedule: Q01DX001 (ip), vehicle: Klucel (hydroxypropylcellulose) (HPC)): 621 % of control
- T/C (endpoint: median survival time, dose: 40.0 mg/kg/injection, schedule: Q01DX001 (ip), vehicle: saline): 370 % of control
- T/C (endpoint: median survival time, dose: 53.3 mg/kg/injection, schedule: Q01DX001 (ip), vehicle: saline + alcohol): 103 % of control
- T/C (endpoint: median survival time, dose: 80.0 mg/kg/injection, schedule: Q01DX001 (ip), vehicle: Klucel (hydroxypropylcellulose) (HPC)): 103 % of control
- T/C (endpoint: median survival time, dose: 160.0 mg/kg/injection, schedule: Q01DX001 (ip), vehicle: Klucel (hydroxypropylcellulose) (HPC)): 95 % of control

SMILES: O=C(O)CCCc1ccc(N(CCCl)CCCl)cc1
- T/C (endpoint: mean survival time, dose: 7.5 mg/kg/injection, schedule: Q01DX009 (ip), vehicle: Klucel (hydroxypropylcellulose) (HPC)): 112 % of control
- T/C (endpoint: mean survival time, dose: 16.0 mg/kg/injection, schedule: Q03HX016 (ip), vehicle: other): 112 % of control
